The source gives no read counts; variants with many changes may rest on few reads.
B1: LINE1-mini (parent)
chain: GGCAGAGCUCAACACAGCGUGGCAAAGUGGCUGUGGCUAGACUGCC

Variants of: B1
Assay: self-cleavage, relative activity (ratio to wild type); higher = more cleavage; in vitro, sequencing; the parent is a self-cleaving ribozyme

Question: With AGCAGAGGUCAACACAGCGUUGCAAAGUGGCUGUGGCUAGCCUGAC [G1A C8G G21U A41C C45A] as the variant, how does the self-cleavage read?
Answer: 0.21

Question: Which self-cleavage does the source give for AGCAGAGGUCAACACAGCGUGGCAAAGUGGCUUUGGCUAGACUGCC [G1A C8G G33U] here?
Answer: 0.05

Question: Which self-cleavage does the source give for ACCAGAGCUAAACACAGCGUGGCAAAGUGGCUGUGGCUAGACUGCC [G1A G2C C10A] here?
Answer: 0.01

Question: With AGCAAAGCUCAACAAAGCGUGGCAAAGUUGCUUUGCCUAGACUGCC [G1A G5A C15A G29U G33U G36C] as the variant, how does the self-cleavage read?
Answer: 0.07

Question: With AGCAGAGCUCAAAACAGCGUGGCAAAGUGGCUGUGCCUAGACUGCG [G1A C13A G36C C46G] as the variant, how does the self-cleavage read?
Answer: 0.17

Question: With AGCAGAGCUCAACACAGUAUGGCAAAGUGGCUGUGGCUAUACUGCC [G1A C18U G19A G40U] as the variant, how does the self-cleavage read?
Answer: 0.04

Question: For AUCAGAUCUCAACACAGCGUGGAAAACUGGCGGUUGCUAGACUGCC [G1A G2U G7U C23A G27C U32G G35U], which self-cleavage is on record?
Answer: 0.14

Question: For AGCACACCUCAACACAGCGUGGCAAAGUGCCUGUGGCUAAACUGCC [G1A G5C G7C G30C G40A], which self-cleavage is on record?
Answer: 0.45

Question: For AGCAGAGCUCAACACAGCGUGGGAAAGUGGAUUUUGCUAGACUGCC [G1A C23G C31A G33U G35U], which self-cleavage is on record?
Answer: 0.1

Question: With AGCAGAGCUCAAUACUGCGUGGAAAAGUGGCUGUGGCUAGACUGCG [G1A C13U A16U C23A C46G] as the variant, how does the self-cleavage read?
Answer: 0.13

Question: With AGCAGAACUCAACACAGCGUGGCAUAGUGGCUGUGGCUAGACUCCC [G1A G7A A25U G44C] as the variant, how does the self-cleavage read?
Answer: 0.26

Question: Which self-cleavage does the source give for AGCAGAGCUCAACACAGAGUGGCAAAGUGGCUGUAGCUAGUCUGCC [G1A C18A G35A A41U] here?
Answer: 0.02

Question: With AACAGAGCUCAACACAGCGUGGCAAAGUGGCUGUGGCUAGACUGCG [G1A G2A C46G] as the variant, how does the self-cleavage read?
Answer: 1.48

Question: For AGCAUAGCUCAACACAGCGUGGCAAAGUGGCUGUGGCUUGACUGCC [G1A G5U A39U], which self-cleavage is on record?
Answer: 0.18

Question: With AGCAGAGCUCAAGAUAGCGUGGCAAAGUGGCUGUGGCUAGACUGCC [G1A C13G C15U] as the variant, how does the self-cleavage read?
Answer: 0.08

Question: Which self-cleavage does the source give for AGCAGAACUCAACACAGCGUGGCAAAGUGGGUGUGGCUAGACUGCC [G1A G7A C31G] here?
Answer: 0.85

Question: Which self-cleavage does the source give for AUCAGAGCUCAACAGAGCGUGGCAAAGUGGCUGUGGCUAGACUGCC [G1A G2U C15G] here?
Answer: 0.03

Question: Which self-cleavage does the source give for AGCAGAGUUCAACACAGCGUGGCAAAGAGACUGUGGCUAUACUGCC [G1A C8U U28A G30A G40U] here?
Answer: 0.3

Question: For AGCAGAGCUAAACAGAGCGUGGCAAAGUGGCUGUGGCUAGACUGCC [G1A C10A C15G], which self-cleavage is on record?
Answer: 0.09

Question: With AGCAGAGCUCAACACAGUGUAGCAAAGUGGCUGUGGCUAGACUGCC [G1A C18U G21A] as the variant, how does the self-cleavage read?
Answer: 1.86

Question: For AACAGAGCGGAACACAGCGGGGCAAAGUGGCUGUGGCUAGACUGCC [G1A G2A U9G C10G U20G], which self-cleavage is on record?
Answer: 0.03

Question: Which self-cleavage does the source give for AGCAAAGCUCAACACAACGUGGCAAAGUGGCUGUGGUUAGACUGCC [G1A G5A G17A C37U] here?
Answer: 0.14

Question: Which self-cleavage does the source give for ACCAGAGCUCAACACAGGGUGGCAAAGUGGCUGUUGCUAGACUGCC [G1A G2C C18G G35U] here?
Answer: 0.03

Question: With AGCAGAGCUCAAGACAGCGUGGCAAAGUGGCUGUAGCUGGACUGCC [G1A C13G G35A A39G] as the variant, how does the self-cleavage read?
Answer: 0.06

Question: With AGUAGACCUCAACACAGGGUGGCAAAGAGGCUGGGGCUAGACUGCC [G1A C3U G7C C18G U28A U34G] as the variant, how does the self-cleavage read?
Answer: 0.38

Question: For AGCAGAGAUCAACUCAGCGUGGAAAAGUGGCUCUGGCUAGACUGCC [G1A C8A A14U C23A G33C], which self-cleavage is on record?
Answer: 0.24

Question: Which self-cleavage does the source give for AGCAGAGCUUAACACAGCGUGGCAAAGUGGCUGUGGCUUGACUGCC [G1A C10U A39U] here?
Answer: 0.23

Question: With AGCAGAGCUUAAGACAGCGUGGCAAAGUGGCUGUGGCUAGACUGCA [G1A C10U C13G C46A] as the variant, how does the self-cleavage read?
Answer: 0.47

Question: With AGCAGAGCUAAACACAGCGUCACAAACUGGCUGUGCCUAGACUGCC [G1A C10A G21C G22A G27C G36C] as the variant, how does the self-cleavage read?
Answer: 0.04

Question: For AGCACAGCUCAACACAGCGCGGCAAAGUGGCUGUAGCUAGACUGCC [G1A G5C U20C G35A], which self-cleavage is on record?
Answer: 0.03

Question: With AGCAGAGAUCAACACAGCGUGGCAAAGUGGUUGGGGCUAGACUGCC [G1A C8A C31U U34G] as the variant, how does the self-cleavage read?
Answer: 0.17

Question: For AGCAGAGCUCAACACAGUGGGGCAAAGUGGCUGUGGCUAGACUGUC [G1A C18U U20G C45U], which self-cleavage is on record?
Answer: 0.12

Question: Which self-cleavage does the source give for AGCAGAGCUGAACACAGCGGGGCAAAGUGGCUGUGGCUAGACUGCC [G1A C10G U20G] here?
Answer: 0.1

Question: For AGCAGAGCUAAACAUAGCGUGGCAAAGUGGCUGUGCCUAGACUUCC [G1A C10A C15U G36C G44U], which self-cleavage is on record?
Answer: 0.01

Question: Which self-cleavage does the source give for AGCAGAUCUCAACACAGCGUGGCUAAGUGGCUGUGGCUAGAUUGCU [G1A G7U A24U C42U C46U] here?
Answer: 0.04

Question: Which self-cleavage does the source give for ACAAGAGCUCAACACAGCGUGGCACAAUGGCUGUGGCUAGACUGCC [G1A G2C C3A A25C G27A] here?
Answer: 0.93

Question: With AGCAGAGCUCAACAUAGCGUGGCAAAGUGGCUGUGGCUAGACUGGC [G1A C15U C45G] as the variant, how does the self-cleavage read?
Answer: 0.12

Question: Which self-cleavage does the source give for AGCAGAGCUCAACACACCGUGGCAAAGUGGCUGUGGCUAGGCUGCC [G1A G17C A41G] here?
Answer: 0.03

Question: For AGCAGAGCUCAACACAGUGUGGCAAUGUGGCUGUGGCUCGACUGCC [G1A C18U A26U A39C], which self-cleavage is on record?
Answer: 0.06

Question: With AGCAGAGGUCAACACCGCGUGGCAAAGUGGUUGUGGCUUGACAGCC [G1A C8G A16C C31U A39U U43A] as the variant, how does the self-cleavage read?
Answer: 0.06

Question: With AGCAGAGCUAAAUACAGCGUGGCAAAGUGGCCGUGGCUAGACUGCC [G1A C10A C13U U32C] as the variant, how does the self-cleavage read?
Answer: 0.08

Question: With AGCAGAGCUCAAGACAGCGUGGCAAAGUGGCUGUGGCUAGAAUGCC [G1A C13G C42A] as the variant, how does the self-cleavage read?
Answer: 0.04

Question: For AGCAGAUCUCAACACAGCGUGGCACAGUGGCUGUGGCUAGACUGCC [G1A G7U A25C], which self-cleavage is on record?
Answer: 0.14

Question: With AGCAGAGCUCAAUACAGCGUAGCAAAGUGGCUGUGGCUAGACCGCC [G1A C13U G21A U43C] as the variant, how does the self-cleavage read?
Answer: 0.06

Question: With AGUAAAGCUCAGCACAGCGUGGCAGAGUGGCUGUGGCUAGACUGCC [G1A C3U G5A A12G A25G] as the variant, how does the self-cleavage read?
Answer: 0.08

Question: For AGCAGAGCUCAACACAGUGUGGCAAAGUGGCUGUGGCUAGACCGAC [G1A C18U U43C C45A], which self-cleavage is on record?
Answer: 0.02

Question: With AGCAGAGCUCAAUACAGCGUGGCAAAGUGGCUGUGGCUACACUGCC [G1A C13U G40C] as the variant, how does the self-cleavage read?
Answer: 0.03

Question: Which self-cleavage does the source give for AGCAGAGGUGAACACAGCGUGGCAAAGUGGCUGUGGCUAGACUGCC [G1A C8G C10G] here?
Answer: 0.07

Question: For AGCAUAGCUCAACACAGCGUGGCAAAGUGGCUGUGGCUAGACUGCA [G1A G5U C46A], which self-cleavage is on record?
Answer: 0.04

Question: For AGCAGAGCUGAACACAGCGUGGCACAGUGGCUGUGGCUAGACUGCC [G1A C10G A25C], which self-cleavage is on record?
Answer: 0.09

Question: Which self-cleavage does the source give for AGCAGAGCUCAACACAGCGUGGAAAAUUAGUUGUGGCAAGACUGUC [G1A C23A G27U G29A C31U U38A C45U] here?
Answer: 0.5

Question: With AGCAGAUCUCAACACAGCGUGGCACAGUGGCUGUGGCUAGAAUGCC [G1A G7U A25C C42A] as the variant, how does the self-cleavage read?
Answer: 0.23

Question: For AGCAAAGCUCAACACAGCCUGGGGAUGUGGCUGUGGCUAGACUGCC [G1A G5A G19C C23G A24G A26U], which self-cleavage is on record?
Answer: 0.04

Question: For AGCAGAGCUCAACAUAGCCUGGCAAAGUGGCUGUGGCUAGACUGCC [G1A C15U G19C], which self-cleavage is on record?
Answer: 1.34

Question: For AGCAAAGCUCAACACAACGUGGCAAAGUGGCUGUGGCUAGACUGCC [G1A G5A G17A], which self-cleavage is on record?
Answer: 0.06

Question: For AGCAGAGCUCAACACAGCGUGGCAAAGUGGUUGAGGCUAGACUGCC [G1A C31U U34A], which self-cleavage is on record?
Answer: 0.02

— the RNAGym collection of RNA variant scans (doi:10.7554/elife.90254)
